Source: ChEMBL document CHEMBL5308541, “MAIP: An Open-Source Tool to Enrich High-Throughput Screening Output and Identify Novel, Druglike Molecules with Antimalarial Activity” (ACS Med Chem Lett, 2023)
Among all 4,800 compounds or so, about 420 (8.8%) showed an effect of 50% or more. Some of the results follow.

System: Plasmodium falciparum
Test: Confirmatory screen in NF54 nanoGlo assay, in single point, at 2uM, 72h
Format: functional, Erythrocyte
Conditions: timepoint 72 hour

SMILES	% Inhibition [%]
COC(=O)c1cn(CCNc2ccnc3cc(Cl)ccc23)cc2c(O)nnc1-2	95
CCOc1ccc2nc(CN(CC)CC3CCN(C4CCN(C)CC4)CC3)ccc2c1	82
c1ccc(CN2CCC(CCNC[C@@H]3CCCN4CCCC[C@H]34)CC2)cc1	61
Cc1cccc(N2CCC(NCc3cc(C)cc(CN4CCN(C)CC4)c3C)CC2)c1	61
COc1ccnc(NCCCc2nc(-c3ccncc3)cs2)n1	65
Cc1ccc2[nH]cc(-c3cc(N4CCOCC4)nc(N)n3)c2c1	57
C[C@@H](CNC1CCN(C2CCN(C)CC2)CC1)c1cccc(Cl)c1	98
CCc1cc(Nc2ccc(N3CCOCC3)nc2)nc(-c2ccncc2)n1	49
CNc1nc(N2CCN(CC(=O)NC3CCCCC3)CC2)nc2ccccc12	23
COc1ccc2nc3cc(Cl)ccc3c(O)c2c1	57
Cc1ccc2nc(CCCNC3CCN(c4cc(C)nc(N)n4)CC3)oc2c1	29
O=C(NCC1CC1)c1cc2c(OCc3ccc(Cl)cc3)cccc2[nH]1	57
CCc1oc2ccccc2c1CNC[C@H](O)c1ccc(Cl)cc1	99
Cc1cnccc1NCCNCc1cccc(OCCCCN2CCOCC2)c1	95
Cc1cc(O)c(Cl)cc1-c1ccc2nccc(N)c2c1	90
O=C(Nc1cnc2c(c1)COCC2)c1cc2c(OC(F)(F)F)cccc2[nH]1	95
Nc1ccnc(-c2cccc3[nH]ccc23)c1	6
COc1ccc2cc(-c3cc(N)ccn3)[nH]c2c1	55
Cc1ccn2cc(-c3ccc(N4CCC(NCc5cccnc5)CC4)cc3)nc2c1	60
O=C1C2CCCCC2C(c2c(-c3ccccc3)[nH]c3ccccc23)N1Cc1ccccc1 (configuration not stated)	40
Cc1nc2ccc(CNC3CCN(c4ccc(F)c(F)c4)CC3)cc2[nH]1	56
CCN(C)CCNc1cc(C)nc(C)n1	19
CCNc1cc(C)nc(NCCNC(=O)Nc2cc(F)cc(F)c2)n1	76
Cc1cc(NC[C@H](O)COc2ccc(F)cc2)nc2ccccc12	76
O=C(CC1CCNCC1F)Nc1ccc(Oc2ccnc3ccccc23)cc1 (configuration not stated)	14
c1ccc(CCC23CN(Cc4ccccn4)CC2CN(Cc2ccns2)C3)cc1 (configuration not stated)	88

SMILES	% Inhibition [%]
COCCNc1nc(N[C@@H](C)c2ccccc2)c2ccccc2n1	63
Cc1ccc2[nH]c(CNC[C@@H](CO)C3CCC3)cc2c1C	65
O=C(NCCN1CCCCC1)c1cccc(-c2cnc3ccc(F)cn23)c1	26
CCOc1cccc(N2CCN(C(=O)c3cc(-c4ccc(F)cc4)[nH]n3)CC2)n1	32
Cc1cccc(Nc2ccnc(Nc3ccc(N4CCN(C)CC4)cc3)n2)c1	93
COc1ccc(-c2cncc(C(=O)NCC3CCN(CCN(C)C)CC3)c2)cc1	94
c1ccc(-c2nc3c(c(NCCNc4ncccn4)n2)CCC3)nc1	25
CCN1CCN(c2ccc(CNCc3cccc(O)c3)cc2F)CC1	39
O[C@@H](CNCc1cc2cc(Cl)c(Cl)cc2[nH]1)c1ccc(F)cc1	79
FC(F)(F)c1ccc(-c2c(-c3ccccc3)ncn2Cc2ncn[nH]2)cc1	34
CN([C@@H](c1ccccc1)c1ccccc1Br)S(=O)(=O)c1c[nH]c2ncccc12	47
COc1ccc(CNCc2cc3ccccc3[nH]2)cc1CN(C)C	59
OC1(c2ccc(Cl)cc2)CCN(C[C@@H]2CCCN3CCCC[C@H]23)CC1	73
Cc1ccccc1-c1cccc(N2CCC(NCC3CCNCC3)CC2)c1	99
Cc1cc(F)ccc1N1CCC(NCCCNc2cccnc2)CC1	18
c1ccc(-c2ccnc(C3CCN(CC45CNCC4C5)CC3)n2)cc1 (configuration not stated)	94
O=C(CCc1nnc(-c2ccc(-c3ccccc3)cc2)o1)NC[C@@H]1CCCN2CCCC[C@H]12	56
CN(C)C1(CNc2nc(C(F)(F)F)nc3cc(F)ccc23)CCCCCC1	61
NCC1(O)CCN(c2ccnc3cc(F)c(Cl)cc23)CC1	94
Cc1cc(NC[C@H]2CN(CC(C)C)CCO2)c2ccccc2n1	26
CCN1CCC[C@H](CNCc2cn(-c3ccccc3)nc2C(C)C)C1	9
O=C(NCCNc1ccnc2ccncc12)c1ccc(C(F)(F)F)cc1	27
N#Cc1cccc(Cl)c1N1CCC(N2CCCC2)CC1	27
CN1CCN(CCOc2ccccc2CN(C)Cc2cc3cc(F)ccc3[nH]2)CC1	87
CN(C)Cc1cccc(CCNCc2csc(-c3ccc(C(F)(F)F)cc3)n2)c1	74
Cc1ccc2c(-c3ccccc3CN3CCNCC3)cccc2n1	29

SMILES	% Inhibition [%]
CCc1ccc2ncnc(NCCCN3CCN(CCO)CC3)c2c1	43
Cn1cncc1[C@@H]1CNC[C@H]1CNC(=O)c1ccccc1NC1CCCCC1	79
CCCC(=O)NC1COCC1Cc1ccncc1 (configuration not stated)	83
CN1CCN(CC2CCN(c3ccnc4ccccc34)CC2)CC1	99
Cc1ccccc1CN1CCC(CNc2c3c(nc4ccccc24)CCC3)CC1	95
CCN1CCC[C@H](CN(C)C2CCN(c3ccc(NC(=O)c4ccc(OC)cc4)cc3)CC2)C1	-3
CC(CNc1nc(NCC(C)N2CCOCC2)c2cc(Cl)ccc2n1)N1CCOCC1 (configuration not stated)	87
CN(CCCc1cc(-c2ccc(F)cc2)n[nH]1)CC1CCNCC1	17
CN1CCN(CCNC2CCN3CCCC3C2)C(c2ccccc2)C1 (configuration not stated)	32
Nc1ccc(-c2cc(OC(F)(F)F)ccc2O)cn1	11
O=C(NCc1ccc(OC(F)(F)F)cc1)N(CCN1CCCC1)[C@H]1CCCNC1	27
O=C(NCc1ccc(N2CCNCC2)c(F)c1)c1ccc(-c2noc(C(F)(F)F)n2)cc1	57
Cc1ccc2[nH]c(-c3cc4n(n3)CCN(c3ccnc(N)n3)C4)nc2c1C	89
CNc1nc(N[C@H]2CCCN(Cc3ccc(Cl)cc3)C2)nc2c1CCC2	79
CC1(N2CCC2)CCC(NC[C@H]2CCN(Cc3ccccc3)C2)CC1 (some centres not stated)	66
CN1C(C)(C)CC(NC(=O)c2ccc(-c3cc(-c4cccc(C(F)(F)F)c4)n[nH]3)cc2)CC1(C)C	45
Cc1ccccc1-c1cccc(CNCCCN2CCC[C@H](O)C2)c1	12
COCCN1CC[C@H](CNC2CCN(c3ncc4ccc(F)cc4n3)CC2)C1	59
OC1CN(Cc2cnc(C3CCCCC3)nc2)CCC1Nc1ncccn1 (configuration not stated)	1
O[C@H](COc1ccccc1CNCc1cc(-c2ccccc2)[nH]n1)CN1CCCCC1	80
CCN1CCN(C[C@@H](C)CNCc2cc(-c3ccccc3)ccc2OC)CC1	-6
COCCN1CC[C@H](CN(C)c2ccnc3cc(Cl)ccc23)C1	98
CCCc1cccc(CNC2CCN(C3CCN(C)CC3)CC2)c1	58
OCC1CCCN1CCCCNC1CC2(CCC2)Oc2ccccc21 (configuration not stated)	2
COc1cc2nc(-c3ccc(F)c4cccnc34)nc(N)c2cc1OC	98
COCCCN1CCC(Nc2ncnc3cc(C)c(C)cc23)CC1	97

SMILES	% Inhibition [%]
CN1CCC[C@H](CN2CCN(Cc3cc4n(n3)CCCNC4)CC2)C1	-4
COc1ccc2nc(C)cc(NCc3cccc(NC(=O)c4ccco4)c3)c2c1	96
c1ccc2c(Nc3ccc4[nH]cnc4c3)c3ccccc3nc2c1	98
COC(CN(Cc1nc(N)nc(Nc2ccc(C)cc2)n1)Cc1nc(N)nc(Nc2ccc(C)cc2)n1)OC	84
CCN(Cc1cnn(-c2cccc(Cl)c2)c1)CC1CCN(C2CCN(C)CC2)CC1	79
CC1CN(c2ccccc2NC(=O)c2ccc(-c3cnco3)cc2)CC(C)O1 (configuration not stated)	-6
CC(C)c1ccc(-c2nc(CN3CCCCC3)cc(CN3CCCCC3)c2O)cc1	93
Clc1cccc(N2CC[C@H](CNC3CCN(Cc4ccco4)CC3)C2)c1	66
O=C(n1nnc2cc(Cl)c(Cl)cc21)C(F)(F)F	15
Cc1cc(N2CCC(NCCCN3CCCc4ccccc43)CC2)nc(N)n1	74
OCCCNc1nn2cc(-c3ccc(F)cc3)nc2s1	0
CN(C)C1(CNc2nc(C(F)(F)F)nc3cc4c(cc23)OCO4)CCCCCC1	49
O[C@H]1CCN(Cc2ccccc2CNc2cccc(-n3ccnc3)n2)C1	94
Cc1cnccc1NCCNCc1cnc(N2CCCCC2)nc1	61
CCN1C[C@H](Nc2nc(C)nc3sccc23)[C@@H](OC)C1	98
CNc1nc(C)c(-c2ccnc(Nc3cccc(S(C)(=O)=O)c3)n2)s1	58
CC(NC(=O)OC(C)(C)C)C1CCN(C[C@@H]2CCCN2C(=O)OC(C)(C)C)CC1 (some centres not stated)	17
Nc1cc(N2CCC(c3nc4cc(F)ccc4[nH]3)CC2)nc(N2CCOCC2)n1	39
COc1ccc2[nH]cc(C3=CCN(c4ccc5nnc(-c6ccccc6F)n5n4)CC3)c2c1	51
O=C1CN(C(=O)c2ccnc3ccccc23)CCN1Cc1ccccc1F	53
FC(F)(F)c1ccc(N2CCC[C@H](NC3CCN(Cc4ccco4)CC3)C2)nc1	21
NC(=O)[C@]1(O)CCN(c2ccnc3ccc(Oc4ccccc4)cc23)C1	29
Cc1ccc2nc(-c3cccc(NC(=O)c4ccc(OC(F)(F)F)c(Cl)c4)c3)[nH]c2n1	72
Cc1ccc(-c2cccc3c(C(=O)NCCCN4CCC(N5CCCCC5)CC4)cc(C)nc23)cc1	98
